For this assay, the target named is HA-tagged wild-type ELL2 (human) (UniProt O00472). Nature of the assay: co-IP.

Amino acid sequences for entries named in this document (tags omitted).
UniProt O00472: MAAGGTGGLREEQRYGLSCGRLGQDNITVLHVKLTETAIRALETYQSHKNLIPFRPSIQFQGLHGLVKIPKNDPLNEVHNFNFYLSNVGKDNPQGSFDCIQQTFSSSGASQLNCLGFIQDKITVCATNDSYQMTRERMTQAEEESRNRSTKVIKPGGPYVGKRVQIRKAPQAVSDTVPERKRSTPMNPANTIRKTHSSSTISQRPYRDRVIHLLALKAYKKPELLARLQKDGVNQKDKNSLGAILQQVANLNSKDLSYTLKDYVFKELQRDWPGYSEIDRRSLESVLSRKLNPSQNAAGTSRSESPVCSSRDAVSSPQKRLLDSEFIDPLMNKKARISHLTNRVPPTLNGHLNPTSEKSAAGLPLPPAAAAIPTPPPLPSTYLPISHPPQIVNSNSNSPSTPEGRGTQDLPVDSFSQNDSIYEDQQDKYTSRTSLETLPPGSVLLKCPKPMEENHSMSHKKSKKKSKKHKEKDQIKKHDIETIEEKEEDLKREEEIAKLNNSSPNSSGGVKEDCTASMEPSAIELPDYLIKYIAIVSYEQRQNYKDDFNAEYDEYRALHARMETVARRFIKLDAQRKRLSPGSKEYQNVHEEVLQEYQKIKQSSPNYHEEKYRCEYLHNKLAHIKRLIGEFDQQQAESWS

These are yes or no findings as the source states them, for the method shown. Binding seen in cells or lysates may run through a third protein. Some entries that bind do so weakly or less than the wild type.

The results in this text go back to article PMC5290273 (Nature Communications, 2017).

B1: AFF1, endogenous (protein, UniProt P51825 1-1210)
chain: MAAQSSLYNDDRNLLRIREKERRNQEAHQEKEAFPEKIPLFGEPYKTAKGDELSSRIQNMLGNYEEVKEFLSTKSHTHRLDASENRLGKPKYPLIPDKGSSIPSSSFHTSVHHQSIHTPASGPLSVGNISHNPKMAQPRTEPMPSLHAKSCGPPDSQHLTQDRLGQEGFGSSHHKKGDRRADGDHCASVTDSAPERELSPLISLPSPVPPLSPIHSNQQTLPRTQGSSKVHGSSNNSKGYCPAKSPKDLAVKVHDKETPQDSLVAPAQPPSQTFPPPSLPSKSVAMQQKPTAYVRPMDGQDQAPSESPELKPLPEDYRQQTFEKTDLKVPAKAKLTKLKMPSQSVEQTYSNEVHCVEEILKEMTHSWPPPLTAIHTPSTAEPSKFPFPTKDSQHVSSVTQNQKQYDTSSKTHSNSQQGTSSMLEDDLQLSDSEDSDSEQTPEKPPSSSAPPSAPQSLPEPVASAHSSSAESESTSDSDSSSDSESESSSSDSEENEPLETPAPEPEPPTTNKWQLDNWLTKVSQPAAPPEGPRSTEPPRRHPESKGSSDSATSQEHSESKDPPPKSSSKAPRAPPEAPHPGKRSCQKSPAQQEPPQRQTVGTKQPKKPVKASARAGSRTSLQGEREPGLLPYGSRDQTSKDKPKVKTKGRPRAAASNEPKPAVPPSSEKKKHKSSLPAPSKALSGPEPAKDNVEDRTPEHFALVPLTESQGPPHSGSGSRTSGCRQAVVVQEDSRKDRLPLPLRDTKLLSPLRDTPPPQSLMVKITLDLLSRIPQPPGKGSRQRKAEDKQPPAGKKHSSEKRSSDSSSKLAKKRKGEAERDCDNKKIRLEKEIKSQSSSSSSSHKESSKTKPSRPSSQSSKKEMLPPPPVSSSSQKPAKPALKRSRREADTCGQDPPKSASSTKSNHKDSSIPKQRRVEGKGSRSSSEHKGSSGDTANPFPVPSLPNGNSKPGKPQVKFDKQQADLHMREAKKMKQKAELMTDRVGKAFKYLEAVLSFIECGIATESESQSSKSAYSVYSETVDLIKFIMSLKSFSDATAPTQEKIFAVLCMRCQSILNMAMFRCKKDIAIKYSRTLNKHFESSSKVAQAPSPCIASTGTPSPLSPMPSPASSVGSQSSAGSVGSSGVAATISTPVTIQNMTSSYVTITSHVLTAFDLWEQAEALTRKNKEFFARLSTNVCTLALNSSLVDLVHYTRQGFQQLQELTKTP
Take B1: the binding result is “binds”.
